Data as given in paper PMC4336329 (PLoS ONE, 2015).
Out of some 310,000 compounds screened, about 14,000 (4.5%) showed an effect of 50% or more. The effect is printed as a negative number. Some of the results follow.

Biological target: human ether-à-go-go-related gene (hERG) potassium channel (human, UniProt Q12809)
Test: primary screen, population patch clamp on CHO cells stably expressing hERG
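Note: peak tail current of the secondary pulse compared with the same well before compound.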

Chain of human ether-à-go-go-related gene (hERG) potassium channel (Q12809 whole entry, looked up): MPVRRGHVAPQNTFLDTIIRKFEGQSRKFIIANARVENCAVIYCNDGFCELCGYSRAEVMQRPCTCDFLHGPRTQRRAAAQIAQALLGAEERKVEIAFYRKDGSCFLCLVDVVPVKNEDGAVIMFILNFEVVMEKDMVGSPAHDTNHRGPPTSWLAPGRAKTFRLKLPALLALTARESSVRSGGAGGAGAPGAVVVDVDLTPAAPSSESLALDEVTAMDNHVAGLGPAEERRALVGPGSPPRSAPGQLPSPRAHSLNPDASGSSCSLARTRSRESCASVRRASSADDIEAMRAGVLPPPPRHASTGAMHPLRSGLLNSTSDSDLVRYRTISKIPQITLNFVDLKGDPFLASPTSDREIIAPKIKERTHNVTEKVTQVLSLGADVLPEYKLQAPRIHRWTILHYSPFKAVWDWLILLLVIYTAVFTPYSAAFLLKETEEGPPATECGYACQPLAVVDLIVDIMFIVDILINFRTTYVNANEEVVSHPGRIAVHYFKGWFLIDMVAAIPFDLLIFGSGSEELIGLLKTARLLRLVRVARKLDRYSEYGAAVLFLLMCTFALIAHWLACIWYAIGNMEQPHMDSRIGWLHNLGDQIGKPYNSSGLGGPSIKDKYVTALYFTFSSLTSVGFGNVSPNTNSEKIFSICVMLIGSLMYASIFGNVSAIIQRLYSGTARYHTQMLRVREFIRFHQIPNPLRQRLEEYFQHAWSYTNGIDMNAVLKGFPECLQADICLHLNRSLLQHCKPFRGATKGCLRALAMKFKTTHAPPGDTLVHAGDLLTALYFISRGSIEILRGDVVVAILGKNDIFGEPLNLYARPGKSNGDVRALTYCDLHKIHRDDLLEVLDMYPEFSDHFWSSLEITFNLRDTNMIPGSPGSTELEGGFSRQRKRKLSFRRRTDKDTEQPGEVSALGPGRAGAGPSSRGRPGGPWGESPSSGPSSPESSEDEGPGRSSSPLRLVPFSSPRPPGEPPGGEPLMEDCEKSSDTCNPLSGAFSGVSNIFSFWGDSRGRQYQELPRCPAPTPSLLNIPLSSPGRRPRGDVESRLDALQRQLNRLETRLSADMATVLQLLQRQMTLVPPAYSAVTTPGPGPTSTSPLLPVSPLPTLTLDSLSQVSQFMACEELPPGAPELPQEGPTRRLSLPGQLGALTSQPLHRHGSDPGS

SMILES	hERG current change (%, negative = inhibition) at 10uM [%]
Cc1cc(OC2CCCCC2)nc(-c2ccccc2O)n1	19.6
COc1ccc(-c2nnn(CC(=O)N(C3CCCC3)C(C)C(=O)NC3CCCC3)n2)cc1OC (stereo not drawn)	-29.2
Cc1ccc(-n2c(C)nc3ccsc3c2=O)cc1	1.42
COC(=O)[C@H]1C[C@@H]1[C@H](NC(=O)c1cnccn1)c1ccccc1	3.44
Cc1ncn(C23CC4CC(CC(O)(C4)C2)C3)n1	-2.28
CC(C)N(CCNC(=O)c1ccc(OCC2CCCO2)cc1)C(C)C (stereo not drawn)	4.98
CCCCN(CCCC)Cc1ccc(N)cc1	-7.82
C=CCc1cccc(/C=N/NC(=O)C(C)Nc2cccc(C)c2)c1O (stereo not drawn)	6.12
CCCCN(C)C(=S)Nc1ccc2nc(N3CCN(CC)CC3)cc(C)c2c1	-78.9
Cc1nnc(N/N=C\c2ccc(-c3cccc(C(=O)O)c3)o2)n1N.Cl	29.3
O=C(Nc1ccc2ccccc2c1)c1ccc(Cl)cc1Cl	31
Cc1cc(C)c(C)c(S(=O)(=O)Nc2ccccc2C(=O)NCCCN2CCOCC2)c1C	-88.5
O=C(Cc1ccccc1)Nc1ccc(NC(=O)c2cccnc2)cc1	20.3
Cc1ccc(NC(=O)Cn2cnc3c(=O)n(C)c(=O)n(C)c32)c(C)c1	-7.57
O=C(NCCNc1ccc(Cl)cc1[N+](=O)[O-])c1cccnc1	-29.4
O=C1c2ccccc2C(=O)N1c1ccc(Cl)cn1	1.29
NC(=O)c1cc[n+](CC2=C(C(=O)[O-])N3C(=O)[C@@H](NC(=O)C(c4ccccc4)S(=O)(=O)[O-])[C@H]3SC2)cc1.[Na+] (stereo partly drawn)	20.3
Cc1ccc(S(=O)(=O)N2CCN(C(C)CC(=O)O)CC2)cc1 (stereo not drawn)	16.4
Cn1cc(Cl)c(C(=O)OCC(=O)Nc2ccccc2)n1	7.38
O=C(CN1CCN(Cc2cccc(F)c2)CC1)NCc1ccccc1	-10.4
COc1ccc(Oc2nnc(-c3ccccc3)cc2C#N)cc1	7.69
CC(C)CC(c1nnnn1Cc1ccco1)N1CCN(C2CCCC2)CC1.Cl (stereo not drawn)	-38.1
COc1cccc2c(O)cc(=O)n(C)c12	6.9

SMILES	hERG current change (%, negative = inhibition) at 10uM [%]
O=C(Nc1ccc(OC(F)(F)F)cc1)c1ccc2c(c1)no[n+]2[O-]	-1.27
Cc1c(OC(C)C(=O)NCc2ccccn2)ccc2c3c(c(=O)oc12)CCCC3 (stereo not drawn)	-23
CC(C)CCn1c(N2CCOCC2)nc2c1c(=O)n(CC(N)=O)c(=O)n2C	19.5
Nc1c(C(=O)c2ccccc2)sc2nsc(SCCN3CCOCC3)c12	18.1
c1ccc(N/N=C2\CCCc3ccccc32)nc1	1.09
CC(C)Cn1c(N)c(C(=O)NCc2cccs2)c2nc3ccccc3nc21	1.87
CCc1cc(=O)oc2cc(OCC(N)=O)c(Cl)cc12	-8.39
N#Cc1ccc(/C=N/NC(=O)c2cc(-c3cccs3)nc3ccccc23)cc1	-5.7
Cc1ccccc1-n1c(C)cc(/C=C2\NC(=O)NC2=O)c1C	-8.57
Cn1c(O)c(C(=N)COc2cccc(Cl)c2)c(=O)n(C)c1=O	-3.94
Cc1ccc(CN2C(=O)CCC2C(=O)NCCCN2CCCC(C)C2)cc1 (stereo not drawn)	1.99
CCC(C(=O)Nc1ncn[nH]1)(C(F)(F)F)C(F)(F)F	-10.3
CCN(Cc1nc2ccccc2c(=O)[nH]1)C(=O)c1cc(C2CC2)nn1-c1ccccc1	-34
O=C(Cc1ccc(S(=O)(=O)N2CCOCC2)s1)Oc1ccc(F)cc1	7.19
CCN1CCN(C(CNS(=O)(=O)c2ccccc2)c2cccnc2)CC1 (stereo not drawn)	-39.2
Cc1nnc(N/N=C/c2cc([N+](=O)[O-])c(N3CCC(C)CC3)cc2N2CCC(C)CC2)n1N.Cl	15.6
CC(=O)Nc1ccc(NC(=O)C(C)Oc2ccccc2C(=O)NCc2ccccc2)cc1 (stereo not drawn)	-46.9
CCCOC(=O)Nc1nc2ccccc2o1	19.5
CCCC/C(O)=C1\C(=O)CC(C)(C)CC1=NCCCCCC(=O)O	7.59
Cc1cc(CNC(=O)COc2ccc([N+](=O)[O-])cc2)c2ccccc2n1	-25.1
Nc1ccccc1C(=O)OC1CSC1	10.9
CN(C(=O)C(Cl)Cl)C1CC2C=CC1C2 (stereo not drawn)	5.29
CCCN(CCC)Cc1c(C(=O)N/N=C/C(C)=C\c2ccccc2)nnn1-c1nonc1N	11.6

SMILES	hERG current change (%, negative = inhibition) at 10uM [%]
CCOC(=O)Cn1cnc2scc(-c3ccc(C)cc3)c2c1=O	2.29
COC(=O)COc1ccc(S(=O)(=O)N2CCc3ccccc3C2)cc1	1.72
Cc1cc(F)ccc1S(=O)(=O)Nc1ccc(C(=O)N(C)Cc2ccco2)cc1	-28
O=C(c1cnn2c(C(F)(F)F)cc(-c3ccc(F)cc3)nc12)N1CCc2ccccc2C1	-3.83
S=C(NNc1cccc(Cl)c1)NC1CCCCC1	5.41
CC(C)c1ccc(NC(=S)NC2CCCCCC2)cc1	-0.889
COc1cccc(CNC(=O)C2CCN(S(=O)(=O)c3cccc4nonc34)CC2)c1	19
CCNC(=O)C(=O)NCC1CCCN1S(=O)(=O)c1cccs1 (stereo not drawn)	3.16
CCCCCCNC(=O)C(C#N)c1nc2ccccc2nc1N1CCCC1 (stereo not drawn)	5.39
COc1ccc2c(c1OC)C(=O)OC2c1c(O)n(C2CCCCC2)c(=O)[nH]c1=O (stereo not drawn)	-68.8
COCCNC(=O)c1onc(CSc2nc3ccccc3[nH]2)c1C(=O)NCCOC	-14.3
CCc1c(C)nc2ncnn2c1Nc1ccc(C)c(C)c1	-17.6
COc1ccc2[nH]cc(CCNC(=O)C3CCCO3)c2c1 (stereo not drawn)	9.17
CC1=C(C(=O)Nc2ccccc2C(=O)N2CCCCC2)SCCO1	12.3
O=C(O)C(=O)O.O=C(c1cccc(F)c1)N1CCN(Cc2ccc3c(c2)OCO3)CC1	6.43
CS(=O)(=O)N(CC(=O)Nc1ccccc1Br)Cc1ccccc1	8.95
CCOC(=O)c1oc2c(CN3CCN(C)CC3)c(O)ccc2c(=O)c1-c1ccccc1OC	6.47
COCCN(Cc1cc2cc(C)ccc2nc1Cl)C(=O)Nc1ccccc1OC	8.78
C/C=C/c1ccc(OCCCNC)c(OC)c1.O=C(O)C(=O)O	-44.6
COc1ccc(C(=O)Nc2ccc(-c3nnn(CC(=O)NCc4ccco4)n3)cc2)cc1	-15.5
Fc1ccc(CN2CCSCC2)cc1F	0.889
COC(=O)C1(C)CCc2cc(OC)ccc2C1=O (stereo not drawn)	-3.11
COc1ccc(OC)c(CCNC(=O)Cn2sc3nc(C)cc(C)c3c2=O)c1	-0.416

SMILES	hERG current change (%, negative = inhibition) at 10uM [%]
COc1ccc(C(=O)Oc2ccc(C(=S)N3CCOCC3)cc2)cc1	23.1
Cn1c(=O)c2c([nH]c(=S)n2Cc2ccc(Cl)cc2)n(C)c1=O	17
CCOc1ccc(N(CC(=O)N2CCN(c3ccccc3OC)CC2)S(=O)(=O)c2ccc(F)cc2)cc1	-15.1
O=C1/C(=C\c2cccs2)N=C(c2cccs2)N1Nc1ccccc1	13.5
CC1CC(C)CN(S(=O)(=O)c2cccc3nsnc23)C1 (stereo not drawn)	4.61
Cc1c(/C=N/NC(=O)CNc2ccccc2)c2ccccn2c1C(=O)c1ccccc1	-8.97
Cc1nc(SCC(=O)NCCc2ccccc2)c2c(=O)n(C)c(=O)n(C)c2n1	3.58
CC(=O)C1=C(O)C(=O)N(CCCn2ccnc2)C1c1ccc(C)cc1 (stereo not drawn)	-10.4
Cc1ccsc1C(=O)N1CC=C(c2ccccc2)CC1	-15.4
O=C(CCNC(=O)c1ccccc1Cl)Nc1ccncc1	14.9
CCCC(=O)Nc1cc(S(=O)(=O)N(CC)CC)ccc1Cl	2.34
COc1ccccc1CN1CC(C(=O)NCc2nccn2C)CCC1=O (stereo not drawn)	20.8
O=C1Nc2ccccc2C1=Nc1ccc(Br)cc1	9.45
Cc1ccc(OCC(=O)N2c3ccccc3NC(=O)C2(C)C)c([N+](=O)[O-])n1	0.177
CCN(CC(=O)NCC(=O)Nc1cccc(C)c1C)Cc1ccccc1	5.6
Cn1c(SCC(=O)O)nnc1-c1ccc(NC(=O)c2ccc(Cl)c(Cl)c2)cc1	7
Cc1ccccc1-c1n[nH]c(=S)n1/N=C/c1c(C)nn(-c2ccccc2)c1C	6.33
COc1ccc(CC(=O)Nc2cccc(-c3ccc4nnc(C)n4n3)c2)cc1	-54.1
O=C(c1cn(-c2ccccc2)nc1-c1ccc(Cl)cc1)N1CCOCC1	-28.4
CCc1ccc2c(COC(=O)C3CSC4(C)CCC(=O)N34)cc(=O)oc2c1 (stereo not drawn)	-61.1
CCOC(=O)C1=C(N)OC2=C(C(=O)CC(C)(C)C2)C1c1cccnc1 (stereo not drawn)	-29.5
